# Assay results from patent US20250304706A1 (Astellas, published 2025).
# Molecular target: T1, CD3εδ complex protein (human; alpaca, UniProt P07766 23-126; P04234 22-105)
# T1 construct: they are not part of the secreted protein; also called human CD3; CD386 complex protein
# Experiment: ELISA, CD3 complex immobilized
# Description: Binding activities of the anti-TSPAN8/anti-CD3 bispecific antibodies BTE-0001 to BTE-0067 to CD3 were evaluated by the ELISA. ELISA was performed according to a conventional method. The […] complex protein obtained in Example 1-3 was immobilized on a plate. BTE-0001 to BTE-0067 were used as the test antibodies. As a secondary antibody, Goat anti-Human IgG Fc, Multi-Species SP ads-HRP (2014-05, available from SouthernBiotech) was used. TMB+Substrate-Chromogen (S1599, available from Dako) was used as the detection reagent. Infinite M200pro (available from Tecan) was used to measure the absorbance. The EC50 values were calculated using variable slope model (four parameters) in GraphPad Prism with the maximum value in the same plate fixed at the top and the minimum value in the blank in the same plate fixed at the bottom. Since BTE-0001 was always measured in each plate as a control, only the EC50 value of BTE-0001 was expressed as the average value of a plurality of plates.
# Binding activities of the 66 anti-TSPAN8/anti-CD3 bispecific antibodies to CD3 were evaluated by the ELISA described in Example 1-4.
# Chain of UniProt P07766 (P07766 23-126 limits assumed, stated change not applied, form in doubt, chain 1 of 2): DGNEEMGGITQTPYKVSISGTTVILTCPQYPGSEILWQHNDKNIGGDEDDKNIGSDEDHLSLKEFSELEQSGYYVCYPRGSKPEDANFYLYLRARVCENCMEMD
# Chain of UniProt P07766 (P04234 22-105 limits assumed, stated change not applied, form in doubt, chain 2 of 2, further chain): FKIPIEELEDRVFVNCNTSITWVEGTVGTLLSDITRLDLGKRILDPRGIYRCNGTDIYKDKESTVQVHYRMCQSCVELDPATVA
row,Binder,EC50
1,"BTE-0072 (bispecific antibody, anti-TSPAN8/anti-CD3) heavy: QVQLVESGGGVVQPGGSLRLSCAASGFTFSSYGMHWVRQAPGKGLEWVAVIWYDGRNKYYADSVKGRFTISRDNSKNTLYLQMNSLRAEDTAVYYCTRDHSGSGSYYIDYWGQGTLVTVSSASTKGPSVFPLAPSSKSTSGGTAALGCLVKDYFPEPVTVSWNSGALTSGVHTFPAVLQSSGLYSLSSVVTVPSSSLGTQTYICNVNHKPSNTKVDKKVEPKSCDKTHTCPPCPAPEAAGGPSVFLFPPKPKDTLMISRTPEVTCVVVDVSHEDPEVKFNWYVDGVEVHNAKTKPREEQYNSTYRVVSVLTVLHQDWLNGKEYKCKVSNKALAAPIEKTISKAKGQPREPQVYTLPPSRDELTKNQVSLSCAVKGFYPSDIAVEWESNGQPENNYKTTPPVLDSDGSFFLVSKLTVDKSRWQQGNVFSCSVMHEALHNHYTQKSLSLSPGK light: EIAMTQSPATLSVSPGERATLSCRASQSVSSNLAWYQQKPGQAPRLLIYGASTRATGLPARFSGSGSGTEFTLTISSLQSEDFAVYYCQQYNNFWTFGQGTKVEIKRTVAAPSVFIFPPSDEQLKSGTASVVCLLNNFYPREAKVQWKVDNALQSGNSQESVTEQDSKDSTYSLSSTLTLSKADYEKHKVYACEVTHQGLSSPVTKSFNRGEC scFv-Fc: EVQLVESGGGLIQPGGSLRLSCAASGFTFNTYAMHWVRQAPGKGLEWVARIRSKYNNYATYYADSVKDRFTISRDDSKSTLYLQMNNLRAEDTAVYYCVRHGNFGDSYVSWFAYWGQGTLVTVSSGKPGSGKPGSGKPGSGKPGSQAVVTQEPSLTVSPGGTVTLTCRSSTGAVTTSNYANWVQQKPGQAPRGLIGGTNKRAPGTPARFSGSLLGDKAALTLSGAQPEDEAEYYCALWYSNLWVFGGGTKVTVL[human IgG1 Fc with C220S L234A L235A P329A T366W (EU numbers) cut from this listing]",1.64 µg/mL
2,"BTE-0073 (bispecific antibody, anti-TSPAN8/anti-CD3) heavy: QVQLVESGGGVVQPGGSLRLSCAASGFTFSSYGMHWVRQAPGKGLEWVAVIWYDGRNKYYADSVKGRFTISRDNSKNTLYLQMNSLRAEDTAVYYCTRDHSGSGSYYIDYWGQGTLVTVSSASTKGPSVFPLAPSSKSTSGGTAALGCLVKDYFPEPVTVSWNSGALTSGVHTFPAVLQSSGLYSLSSVVTVPSSSLGTQTYICNVNHKPSNTKVDKKVEPKSCDKTHTCPPCPAPEAAGGPSVFLFPPKPKDTLMISRTPEVTCVVVDVSHEDPEVKFNWYVDGVEVHNAKTKPREEQYNSTYRVVSVLTVLHQDWLNGKEYKCKVSNKALAAPIEKTISKAKGQPREPQVYTLPPSRDELTKNQVSLSCAVKGFYPSDIAVEWESNGQPENNYKTTPPVLDSDGSFFLVSKLTVDKSRWQQGNVFSCSVMHEALHNHYTQKSLSLSPGK light: EIAMTQSPATLSVSPGERATLSCRASQSVSSNLAWYQQKPGQAPRLLIYGASTRATGLPARFSGSGSGTEFTLTISSLQSEDFAVYYCQQYNNFWTFGQGTKVEIKRTVAAPSVFIFPPSDEQLKSGTASVVCLLNNFYPREAKVQWKVDNALQSGNSQESVTEQDSKDSTYSLSSTLTLSKADYEKHKVYACEVTHQGLSSPVTKSFNRGEC scFv-Fc: EVQLVESGGGLIQPGGSLRLSCAASGFTFNTYAMAWVRQAPGKGLEWVARIRSKYNNYATYYADSVKDRFTISRDDSKSTLYLQMNNLRAEDTAVYYCVRHGNFGDSYVSWFAYWGQGTLVTVSSGKPGSGKPGSGKPGSGKPGSQAVVTQEPSLTVSPGGTVTLTCRSSTGAVTTSNYANWVQQKPGQAPRGLIGGTNKRAPGTPARFSGSLLGDKAALTLSGAQPEDEAEYYCALWYSNLWVFGGGTKVTVL[human IgG1 Fc with C220S L234A L235A P329A T366W (EU numbers) cut from this listing]",1.33 µg/mL
